Reference: PubChem BioAssay (NCI)
Values joined by “and” are separate entries in the source; they are usually repeats but may differ in a detail not shown here. Identical values can stand only once.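 In this assay, cells in 96-well plates receive the compound at five concentrations for 48 hours. Endpoints are linearly interpolated between the surrounding concentrations. GI50: concentration for 50% inhibition of growth. TGI marks complete inhibition of growth.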 Peptide text beside a SMILES is read from it. * marks the point of attachment. Boc = CC(C)(C)OC(=O)*; OBn = c1ccc(CO*)cc1

System: NCI-H322M lung
Assay: growth of human tumour cells (NCI), 48 h

Row | SMILES | TGI [µM] | GI50
1 | NC(=O)SCC(=O)Nc1ccc2ncccc2c1 | > 100 | 
2 | NC(=O)C1N=NSC1NC(=O)c1ccc([N+](=O)[O-])cc1 (stereo not given) | > 100 | 
3 | O=S(=O)(O)c1ccccc1N=Nc1ccc(N=Nc2c(O)ccc3ccccc23)c(S(=O)(=O)O)c1 | > 100 | 
4 | CCN(CC)CC(=O)Nc1ccc2c(c1)C(=O)c1ccc(NC(=O)CN(CC)CC)cc1C2=O | > 100 | 
5 | Cn1c(=O)c2nc(NCCO)cnc2n(C)c1=O | > 100 | 
6 | Cc1cn2c(/C=N/N=C(N)N)c(-c3ccsc3)nc2s1 | 25.6 | 10.9 µM
7 | O=c1cc(O)c2c(O)cc(O)cc2o1 | > 100 | 
8 | COc1cc(Nc2nc3ccccc3nc2C(C)C)cc(OC)c1OC | > 100 | 
9 | O=C(CC1C(=O)Nc2ccccc2S1(=O)=O)Nc1cccc(Cl)c1 (stereo not given) | > 100 | 
10 | COc1ccc(-c2nc3cc(C(F)(F)F)ccc3n2CC2CCCN3CCCCC23)cc1 (stereo not given) | 30.2 | 
11 | Cc1ccc2c(CC(=O)O)cc(=O)oc2c1 | > 100 | 
12 | CC(C)(C)N=CN(C=C(c1ccccc1)c1ccccc1)C1CCCCC1 | > 100 | 
13 | Cc1ncc(-c2ccnc(Nc3ccc(S(C)(=O)=O)cc3)n2)n1C(C)C | > 9.14 | 1.91 µM
14 | COC(=O)/C(=C\c1c(-c2ccccc2)[nH]c2ccccc12)S(C)(=O)=O | 39 | 7.41 µM
15 | COC1=CC(=O)NCCN1 | > 100 | 
16 | Clc1ccc(C2=NOC3C4CCC(C4)C23)cc1 (stereo not given) | > 100 | 
17 | Nc1c2c(nc3ccccc13)CCCc1ccccc1-2 | 27.6 | 
18 | O=C1N[C@H]2[C@H](O)[C@H](O)[C@@H](O)[C@H](O)[C@@H]2c2cc3c(c(O)c21)OCO3 |  | 0.254 µM and 0.211 µM
19 | COC(=O)[C@@H](OC)[C@@H]1Cc2cc3cc(OC4CC(OC5CC(O)C(O)C(C)O5)C(O)C(C)O4)c(C)c(O)c3c(O)c2C(=O)[C@H]1OC1CC(OC2CC(OC3CC(C)(O)C(O)C(C)O3)C(O)C(C)O2)C(O)C(C)O1 (stereo not given in full) | 0.218 | 0.0378 µM
20 | CC(C)CC(NC(=O)C(Cc1ccccc1)NC(=O)C(Cc1ccccc1)NC(=O)OC(C)(C)C)C(=O)OCc1ccccc1 (stereo not drawn) (Boc-Phe-Phe-Leu-OBn; configuration not given here) | > 100 | 
21 | COc1cccc(C=C2N=C(C)N(n3c(-c4ccccc4)nc4ccccc4c3=O)C2=O)c1 | > 100 | 
22 | Cc1c(N=NN(C)C)cc[n+]([O-])c1C | > 100 | 
23 | CCOC(=O)N1N(c2ccccc2)C(=O)C1(c1ccccc1)c1ccccc1 | > 100 | 
24 | NC(=O)C1CCCN1C(=O)N(CCCl)N=O (stereo not given) | > 100 | 

Row | SMILES | TGI [µM] | GI50
25 | O=[N+]([O-])c1ccc(COc2cccc3cccnc23)cc1 | > 100 | 
26 | Cc1cc(NS(=O)(=O)c2ccc(Nc3c4ccccc4nc4c(C(=O)Nc5ccc(S(=O)(=O)N=C(N)N)cc5)ccc(Cl)c34)cc2)no1 | 60.4 | 
27 | COc1ccc(C#CC2=C(c3cc(OC)c(OC)c(OC)c3)C(=O)OC2)cc1 | 24.9 | 9.09 µM
28 | COc1ccc2c(c1)CCN1C3=C(CCC3)C(=O)C[C@@H]21 | > 100 | 
29 | CC(=O)/C(=C\c1c(-c2ccccc2)[nH]c2ccccc12)S(=O)(=O)c1ccccc1 | 20.8 | 5.83 µM
30 | COc1ccc(C(=O)OC2C(OC3C(O)COC(O[C@H]4C[C@H]5[C@@H]6CC=C7C[C@@H](O)CC[C@]7(C)[C@H]6CC[C@]5(C)[C@H]4[C@H](C)C(=O)CCC(C)C)C3OC(C)=O)OCC(O)C2O)cc1 (stereo not given in full) | 7.73 | 0.452 µM
31 | COc1cc2c(cc1OC)[C@@H]([C@H](O)c1ccccc1)NCC2 | > 100 | 
32 | C[n+]1c(/C=C/c2ccc(/C=N/NC(=O)c3ccc(C(=O)N/N=C/c4ccc(/C=C/c5cn6ccccc6[n+]5C)cc4)cc3)cc2)cn2ccccc21 | > 100 | 
33 | C[C@@](O)(/C=C/[C@H]1CC=CC(=O)O1)[C@@H](C[C@@H](O)\C=C/C=C\C=C\CO)OP(=O)(O)O | 10.5 | 
34 | C#CC(=O)OCC#CCOC(=O)C#C | > 100 | 
35 | Oc1c2c(c(O)c3ccccc13)C1(N=N2)c2ccccc2Oc2ccccc21 | 30.5 | 
36 | CCc1ncnc2cc(OCC3CO3)c(OC)cc12 (stereo not given) | 79 | 
37 | CC1(C)CC(=O)c2c(ccc(C(=O)C[C@@H](N)CO)c2N)O1 | > 40.6 | 0.415 µM
38 | CCOP(C)(=O)/C(Cc1ccc(OC)c(OC)c1)=N\O (stereo not given) | > 100 | 
39 | Cc1cc2c(cc1C)[n+](Cc1ccc3ccccc3n1)cn2Cc1ccc2ccccc2n1 | 8.62 | 1.37 µM
40 | CCN(CC)CCC(=O)/C=C/c1ccc(C)cc1 | 29.7 | 
41 | CC(=O)OC1[C@H](n2ccnc2)C[C@H]2[C@@H]3CC=C4CC(N5CCCC5)CC[C@]4(C)[C@H]3CC[C@]12C (stereo not given in full) | > 100 | 
42 | S=C(c1c[nH]c2ccccc12)N1CCCCC1 | > 100 | 
43 | NC(CO)C(=O)NCC(=O)O (stereo not given) | > 100 | 
44 | COc1ccc(-c2nnc(Nc3nc(O)c(C4=c5cc(F)ccc5=NC4=O)s3)o2)cc1 | 84.5 | 25.8 µM
45 | CNCCCn1c2c(c3ccc(F)cc3c1=O)C(=O)c1cc(OC)cnc1-2 | 4.58 | 0.449 µM
46 | COc1ccc(-c2nc(-c3nc4ccc(C(F)(F)F)cc4[nH]3)c3ccccn23)cc1 | > 100 | > 100 µM
47 | CC(C)(SCc1ccccc1)C(N)C(=O)O (stereo not given) | > 100 | 
48 | Cc1cc2c(=O)cc(-c3ccc(F)cc3)oc2c(C(=O)O)c1C | > 100 | 
